The text below walks through data of article PMC9911399, “Two distinct binding modes provide the RNA-binding protein RbFox with extraordinary sequence specificity”.

The chains are these.
T1: RBFOX1 RRM RbFoxmut (Fox-RRM*) (Homo sapiens, UniProt Q9NWB1 109-208, R118D;E147R;N151S;E152T)
T1 sequence: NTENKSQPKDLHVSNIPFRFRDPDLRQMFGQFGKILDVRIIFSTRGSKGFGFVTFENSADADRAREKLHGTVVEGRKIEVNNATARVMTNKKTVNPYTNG

B1: UGAGAGU (DNA:RNA)
RNA: GGGAGACCGGAAUUCAGAUUGUCCUGAGAGUUUAAAUCCCGUCGUAGCCACCA
DNA 1: CAATCTGAATTCCGGTCTCCC
DNA 2: TGGTGGCTACGACGGGATT
B2: GCGCAAU (DNA:RNA)
RNA: B1 RNA with U25G, G26C, A27G, G28C, G30A
DNA 1: CAATCTGAATTCCGGTCTCCC
DNA 2: TGGTGGCTACGACGGGATT
B3: GAAGAUG (DNA:RNA)
RNA: B1 RNA with U25G, G26A, G30U, U31G
DNA 1: CAATCTGAATTCCGGTCTCCC
DNA 2: TGGTGGCTACGACGGGATT
B4: UUUUCAA (DNA:RNA)
RNA: B1 RNA with G26U, A27U, G28U, A29C, G30A, U31A
DNA 1: CAATCTGAATTCCGGTCTCCC
DNA 2: TGGTGGCTACGACGGGATT
B5: AAGGAAU (DNA:RNA)
RNA: B1 RNA with U25A, G26A, A27G, G30A
DNA 1: CAATCTGAATTCCGGTCTCCC
DNA 2: TGGTGGCTACGACGGGATT
B6: GUAAUGC (DNA:RNA)
RNA: B1 RNA with U25G, G26U, G28A, A29U, U31C
DNA 1: CAATCTGAATTCCGGTCTCCC
DNA 2: TGGTGGCTACGACGGGATT
B7: CUUGCGG (DNA:RNA)
RNA: B1 RNA with U25C, G26U, A27U, A29C, U31G
DNA 1: CAATCTGAATTCCGGTCTCCC
DNA 2: TGGTGGCTACGACGGGATT
B8: AGAGGGC (DNA:RNA)
RNA: B1 RNA with U25A, A29G, U31C
DNA 1: CAATCTGAATTCCGGTCTCCC
DNA 2: TGGTGGCTACGACGGGATT
B9: UCUGGCG (DNA:RNA)
RNA: B1 RNA with G26C, A27U, A29G, G30C, U31G
DNA 1: CAATCTGAATTCCGGTCTCCC
DNA 2: TGGTGGCTACGACGGGATT
B10: UAUGGCC (DNA:RNA)
RNA: B1 RNA with G26A, A27U, A29G, G30C, U31C
DNA 1: CAATCTGAATTCCGGTCTCCC
DNA 2: TGGTGGCTACGACGGGATT
B11: GUCGUCA (DNA:RNA)
RNA: B1 RNA with U25G, G26U, A27C, A29U, G30C, U31A
DNA 1: CAATCTGAATTCCGGTCTCCC
DNA 2: TGGTGGCTACGACGGGATT
B12: CUCAGAC (DNA:RNA)
RNA: GGGAGACCGGAAUUCAGAUUGUCCCUCAGACUUAAAUCCCGUCGUAGCCACCA
DNA 1: CAATCTGAATTCCGGTCTCCC
DNA 2: TGGTGGCTACGACGGGATT
B13: CGUCUUA (DNA:RNA)
RNA: B12 RNA with U26G, C27U, A28C, G29U, A30U, C31A
DNA 1: CAATCTGAATTCCGGTCTCCC
DNA 2: TGGTGGCTACGACGGGATT
B14: CAAGGAC (DNA:RNA)
RNA: B12 RNA with U26A, C27A, A28G
DNA 1: CAATCTGAATTCCGGTCTCCC
DNA 2: TGGTGGCTACGACGGGATT
B15: UAGUACU (DNA:RNA)
RNA: B1 RNA with G26A, A27G, G28U, G30C
DNA 1: CAATCTGAATTCCGGTCTCCC
DNA 2: TGGTGGCTACGACGGGATT
B16: CCGCGAG (DNA:RNA)
RNA: B12 RNA with U26C, C27G, A28C, C31G
DNA 1: CAATCTGAATTCCGGTCTCCC
DNA 2: TGGTGGCTACGACGGGATT
B17: UCGUGGA (DNA:RNA)
RNA: B1 RNA with G26C, A27G, G28U, A29G, U31A
DNA 1: CAATCTGAATTCCGGTCTCCC
DNA 2: TGGTGGCTACGACGGGATT
B18: CGUUACG (DNA:RNA)
RNA: B1 RNA with U25C, A27U, G28U, G30C, U31G
DNA 1: CAATCTGAATTCCGGTCTCCC
DNA 2: TGGTGGCTACGACGGGATT
B19: AGUGGGG (DNA:RNA)
RNA: B1 RNA with U25A, A27U, A29G, U31G
DNA 1: CAATCTGAATTCCGGTCTCCC
DNA 2: TGGTGGCTACGACGGGATT
B20: CAAGUUG (DNA:RNA)
RNA: B1 RNA with U25C, G26A, A29U, G30U, U31G
DNA 1: CAATCTGAATTCCGGTCTCCC
DNA 2: TGGTGGCTACGACGGGATT
B21: CGGUAAG (DNA:RNA)
RNA: B12 RNA with U26G, C27G, A28U, G29A, C31G
DNA 1: CAATCTGAATTCCGGTCTCCC
DNA 2: TGGTGGCTACGACGGGATT
B22: CCAACGU (DNA:RNA)
RNA: B1 RNA with U25C, G26C, G28A, A29C
DNA 1: CAATCTGAATTCCGGTCTCCC
DNA 2: TGGTGGCTACGACGGGATT
B23: GUGGGGG (DNA:RNA)
RNA: B12 RNA with C25G, C27G, A28G, A30G, C31G
DNA 1: CAATCTGAATTCCGGTCTCCC
DNA 2: TGGTGGCTACGACGGGATT
B24: UGAGCUG (DNA:RNA)
RNA: B1 RNA with A29C, G30U, U31G
DNA 1: CAATCTGAATTCCGGTCTCCC
DNA 2: TGGTGGCTACGACGGGATT
B25: AACUAUC (DNA:RNA)
RNA: B12 RNA with C25A, U26A, A28U, G29A, A30U
DNA 1: CAATCTGAATTCCGGTCTCCC
DNA 2: TGGTGGCTACGACGGGATT
B26: GAGUGAU (DNA:RNA)
RNA: B12 RNA with C25G, U26A, C27G, A28U, C31U
DNA 1: CAATCTGAATTCCGGTCTCCC
DNA 2: TGGTGGCTACGACGGGATT
B27: GCAACCC (DNA:RNA)
RNA: B12 RNA with C25G, U26C, C27A, G29C, A30C
DNA 1: CAATCTGAATTCCGGTCTCCC
DNA 2: TGGTGGCTACGACGGGATT
B28: AUAUGUU (DNA:RNA)
RNA: B12 RNA with C25A, C27A, A28U, A30U, C31U
DNA 1: CAATCTGAATTCCGGTCTCCC
DNA 2: TGGTGGCTACGACGGGATT
B29: GCGCACG (DNA:RNA)
RNA: B1 RNA with U25G, G26C, A27G, G28C, G30C, U31G
DNA 1: CAATCTGAATTCCGGTCTCCC
DNA 2: TGGTGGCTACGACGGGATT
B30: UGUCAUG (DNA:RNA)
RNA: B1 RNA with A27U, G28C, G30U, U31G
DNA 1: CAATCTGAATTCCGGTCTCCC
DNA 2: TGGTGGCTACGACGGGATT
B31: GAACGGC (DNA:RNA)
RNA: B12 RNA with C25G, U26A, C27A, A28C, A30G
DNA 1: CAATCTGAATTCCGGTCTCCC
DNA 2: TGGTGGCTACGACGGGATT

Substitutions are numbered along the chain they refer to; changes in the protein carry UniProt numbers. The list shows a part of the results.

The assay concerns the target T1, RBFOX1 RRM RbFoxmut (Fox-RRM*). As to the kind of experiment: EMSA; HiTS-Eq, 1 nM pool, 10 min; buffer printed only for the single-RNA assays: 10 mM Tris pH 7.5, 150 mM NaCl, 3.4 mM EDTA, 0.001% NP-40, 30 C. Conditions: tags: His6 N-terminal (pET28a); label: 5' 32P. Put shortly:
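Purified RbFox RRM, wild type or mutant, was incubated for 10 min in 50 µL with 1 nM of a 5′-radiolabelled RNA pool carrying 7 randomized nucleotides, whose flanks were annealed to DNA oligonucleotides, over a series of increasing protein concentrations. Unbound RNA was resolved on 8% native PAGE, cut out, reverse-transcribed, barcoded by PCR and sequenced on an Illumina HiSeq 2500. Relative association constants were derived from changes in read counts for each RNA species versus the control reaction and normalised to the cognate motif.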
(In general: Mobility shift assays separate free from complexed probe on a gel.)
Take B1: the binding signal was 0.111 KA relative to UGCAUGU.
The result for B2 reads 0.0516 KA relative to UGCAUGU.
On to B3, for which the binding signal is 0.127 KA relative to UGCAUGU.
On to B4, for which the binding signal is 0.0545 KA relative to UGCAUGU.
The same measure for B5: 0.0899 KA relative to UGCAUGU; for B6: 0.127 KA relative to UGCAUGU.
The result for B7 reads 0.0958 KA relative to UGCAUGU.
The same measure for B8: 0.0771 KA relative to UGCAUGU; for B9: 0.12 KA relative to UGCAUGU; for B10: 0.209 KA relative to UGCAUGU.
Take B11: the binding signal is 0.157 KA relative to UGCAUGU.
The same measure for B12: 0.0651 KA relative to UGCAUGU; for B13: 0.072 KA relative to UGCAUGU.
The same measure for B14: 0.0678 KA relative to UGCAUGU; for B15: 0.081 KA relative to UGCAUGU.
On to B16, for which the binding signal was 0.126 KA relative to UGCAUGU.
The same measure for B17: 0.0721 KA relative to UGCAUGU; for B18: 0.137 KA relative to UGCAUGU; for B19: 0.116 KA relative to UGCAUGU.
The same measure for B20: 0.13 KA relative to UGCAUGU; for B21: 0.0872 KA relative to UGCAUGU; for B22: 0.113 KA relative to UGCAUGU.
As for B23, the binding signal was 0.104 KA relative to UGCAUGU.
The result for B24 reads 0.101 KA relative to UGCAUGU.
The result for B25 reads 0.0669 KA relative to UGCAUGU; that for B26, 0.101 KA relative to UGCAUGU.
The result for B27 reads 0.0513 KA relative to UGCAUGU.
As to B28, the binding signal is 0.139 KA relative to UGCAUGU.
Regarding B29, the binding signal was 0.397 KA relative to UGCAUGU.
The result for B30 reads 0.597 KA relative to UGCAUGU; that for B31, 0.152 KA relative to UGCAUGU.
